B1: A9 (1E11), tetravalent antibody-like Tn3 (other)
heavy: SQIEVKDVTDTTALITWAKPWVDPPPLWGCELAYGIKDVPGDRTTIDLQQKHTAYSIGNLKPDTEYEVSLICFDPYGAKSNPAKETFTTGGGTPTSSASTKGPSVFPLAPSSKSTSGGTAALGCLVKDYFPEPVTVSWNSGALTSGVHTFPAVLQSSGLYSLSSVVTVPSSSLGTQTYICNVNHKPSNTKVDKRV[omitted - human IgG1 Fc]
light: SQIEVKDVTDTTALITWAKPWVDPPPLWGCELAYGIKDVPGDRTTIDLQQKHTAYSIGNLKPDTEYEVSLICFDPYGAKSNPAKETFTTGGGTPTRTVAAPSVFIFPPSDEQLKSGTASVVCLLNNFYPREAKVQWKVDNALQSGNSQESVTEQDSKDSTYSLSSTLTLSKADYEKHKVYACEVTHQGLSSPVTKSFNRGEC
B2: A7 (1E11), tetravalent Fc-fusion Tn3 (Fc fusion)
chain: AMASGGGGSAIEVKDVTDTTALITWAKPWVDPPPLWGCELAYGIKDVPGDRTTIDLQQKHTAYSIGNLKPDTEYEVSLICFDPYGAKSNPAKETFTTGGGGSGGGGSGGGGSAIEVKDVTDTTALITWAKPWVDPPPLWGCELAYGIKDVPGDRTTIDLQQKHTAYSIGNLKPDTEYEVSLICFDPYGAKSNPAKETFTTGGGGSGGGGSGTGA[omitted - human IgG1 Fc]
B3: B9 (D1), format-matched antibody-like control Tn3 (other)
heavy: SQIEVKDVTDTTALITWSPGERIWMFTGCELTYGIKDVPGDRTTIDLTEDENQYSIGNLKPDTEYEVSLICPNYERISNPAKETFTTGGGTPTSSASTKGPSVFPLAPSSKSTSGGTAALGCLVKDYFPEPVTVSWNSGALTSGVHTFPAVLQSSGLYSLSSVVTVPSSSLGTQTYICNVNHKPSNTKVDKRV[omitted - human IgG1 Fc]
light: SQIEVKDVTDTTALITWSPGERIWMFTGCELTYGIKDVPGDRTTIDLTEDENQYSIGNLKPDTEYEVSLICPNYERISNPAKETFTTGGGTPTRTVAAPSVFIFPPSDEQLKSGTASVVCLLNNFYPREAKVQWKVDNALQSGNSQESVTEQDSKDSTYSLSSTLTLSKADYEKHKVYACEVTHQGLSSPVTKSFNRGEC
notes: Control of A9 carrying the Synagis-specific D1 module; also called B9 (clone D1)

Experiments:
[1] = biological target: T1, human TRAIL R2 on the cell surface (H2122, Colo205, Jurkat and other tumor cell lines) (human, UniProt O14763 56-440); assay: cell-based or functional assay
[2] = biological target: T1, human TRAIL R2 on the cell surface …; assay: flow cytometry on H2122 cells, 10 nM protein, anti-human IgG Alexa Fluor 488

Binder	EC50, killing of H2122 (CellTiter-Glo) [1]	Maximum Inhibition %, H2122 [1]	binding result [2]
B1	1.98 nM	80%	
B2		88%	
B3			no binding (tested: 10 nM)

From patent publication US20130079280A1 (MEDLMMUNE, published 2013)
